Drawing on the antibiotic and cytotoxicity screens of Wong et al. (2023), this text covers cytotoxicity call and growth inhibition call for nine compounds.

Structures are written as SMILES. The list shows a part of the results.

For experiment [1], the system named is HSkMC (human skeletal muscle cells). Kind of experiment: cytotoxicity call (relative viability < 0.9). The conditions noted are these: 10 µM.
Experiment [2] relates to HepG2. Kind of experiment: cytotoxicity call (relative viability < 0.9). The conditions noted are these: 10 µM.
Experiment [3] relates to S. aureus RN4220. Kind of experiment: growth inhibition call (relative growth <= 0.2). The conditions noted are these: 50 µM.

For `NS(=O)(=O)c1ccc(N2CCCC2=O)cc1`, the cytotoxicity call in experiment [1] and in experiment [2] was “inactive” throughout. Moreover, the growth inhibition call in experiment [3] was “inactive”.
As to `Cc1ccc(S(=O)(=O)Nc2ccc3c(c2)C(=O)N([C@@H](C)CO)C[C@H](C)[C@H](CN(C)S(=O)(=O)c2ccc(C)cc2)OCCCC[C@H](C)O3)cc1`, in experiment [1], the cytotoxicity call is “inactive”. The cytotoxicity call in experiment [2] is “active”. In addition, the growth inhibition call in experiment [3] was “inactive”.
Take `CC(C)NC(=O)Nc1ccc2c(c1)C(=O)N([C@@H](C)CO)C[C@H](C)[C@@H](CN(C)S(=O)(=O)c1cn(C)cn1)OCCCC[C@H](C)O2`: the cytotoxicity call in experiment [1] and in experiment [2] was “inactive” each time. Further, the growth inhibition call in experiment [3] is “inactive”.
For `C[C@H](CO)N1C[C@H](C)[C@@H](CN(C)CC2CC2)Oc2ccc(NS(=O)(=O)c3cccs3)cc2C1=O`, the cytotoxicity call in experiment [1] and in experiment [2] was “inactive” in each case. Also, the growth inhibition call in experiment [3] is “inactive”.
Regarding `Cc1ccc(S(=O)(=O)N(C)C[C@@H]2Oc3ccc(NC(=O)c4ccncc4)cc3CC(=O)N([C@H](C)CO)C[C@H]2C)cc1`, the cytotoxicity call in experiment [1] and in experiment [2] was “inactive” each time. In addition, in experiment [3], the growth inhibition call was “inactive”.
For the compound `C[C@@H]1CCCCO[C@H](CN(C)S(=O)(=O)c2ccc(Cl)cc2)[C@@H](C)CN([C@@H](C)CO)C(=O)c2cc(NC(=O)c3ccncc3)ccc2O1`, the cytotoxicity call in experiment [1] is “inactive”. In experiment [2], the cytotoxicity call is “active”. The growth inhibition call in experiment [3] is “inactive”.
Regarding `O=C(Nc1ccc(C(F)(F)F)cc1)Nc1ccc2c(c1)[C@@H]1C[C@@H](CC(=O)N3CCc4ccccc4C3)O[C@H](CO)[C@@H]1O2`, the cytotoxicity call in experiment [1] was “inactive”. For the same compound, the cytotoxicity call in experiment [2] is “active”. Moreover, the growth inhibition call in experiment [3] was “inactive”.
With `C[C@H]1CN([C@@H](C)CO)C(=O)c2cccc(NC(=O)c3ccc(-c4nccs4)cc3)c2O[C@@H]1CN(C)CC1CCCCC1`, the cytotoxicity call in experiment [1] and in experiment [2] was “inactive” throughout. Further, the growth inhibition call in experiment [3] is “inactive”.
Take `CCCNC(=O)N1C[C@@H](C)[C@@H](OC)CN(C)C(=O)c2cc(NS(=O)(=O)CC(F)(F)F)ccc2OC[C@H]1C`: the cytotoxicity call in experiment [1] and in experiment [2] was “inactive” in each case. In addition, in experiment [3], the growth inhibition call was “inactive”.
